Laboratory results from PubChem BioAssay AID1468 (National Center for Advancing Translational Sciences (NCATS), 2008).
Several values for one entry are separate records, joined by “and”; a condition that tells them apart may be missing. Identical values can stand only once. About 1,100 (0.39%) of roughly 280,000 compounds were called active. The shares of active, inactive and inconclusive entries below differ from those in the screen. Calls come from the whole dose curve; as a rule, active = well fitted inhibition curve with a large enough effect; inconclusive = small, poorly fitted or top-dose-only effect, or effect the other way; inactive = flat fitted curve, though single readings scatter. Potencies beside an inconclusive call are fits to weak or partial responses and may not hold up.

Molecular target: Microtubule-associated protein tau (Homo sapiens) (UniProt P10636)
Sequence of UniProt P10636 (P10636 whole entry, looked up): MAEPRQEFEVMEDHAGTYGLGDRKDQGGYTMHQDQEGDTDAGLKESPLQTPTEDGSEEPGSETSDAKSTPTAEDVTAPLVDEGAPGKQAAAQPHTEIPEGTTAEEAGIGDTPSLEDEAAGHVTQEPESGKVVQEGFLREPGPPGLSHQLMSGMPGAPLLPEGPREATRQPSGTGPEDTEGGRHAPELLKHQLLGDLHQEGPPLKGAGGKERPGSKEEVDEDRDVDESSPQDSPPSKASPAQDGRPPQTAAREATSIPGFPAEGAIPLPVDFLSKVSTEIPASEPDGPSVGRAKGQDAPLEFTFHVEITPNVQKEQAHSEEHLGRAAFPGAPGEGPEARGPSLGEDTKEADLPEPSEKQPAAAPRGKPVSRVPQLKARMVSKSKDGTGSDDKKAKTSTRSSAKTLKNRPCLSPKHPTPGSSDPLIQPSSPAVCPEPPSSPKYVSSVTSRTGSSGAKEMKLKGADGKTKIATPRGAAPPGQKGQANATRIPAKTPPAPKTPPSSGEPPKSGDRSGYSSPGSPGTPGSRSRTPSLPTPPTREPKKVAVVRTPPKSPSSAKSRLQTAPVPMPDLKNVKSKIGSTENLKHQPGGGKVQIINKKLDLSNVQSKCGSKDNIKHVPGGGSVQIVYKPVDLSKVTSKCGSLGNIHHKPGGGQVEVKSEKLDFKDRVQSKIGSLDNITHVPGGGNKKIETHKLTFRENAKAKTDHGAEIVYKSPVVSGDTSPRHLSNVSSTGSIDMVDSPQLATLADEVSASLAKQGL
Experiment: qHTS for Inhibitors of Tau Fibril Formation, Fluorescence Polarization; note: nearly all actives have a fitted effect of over 55% in size
Conditions: K18 P301L tau heparin fibrillization, Alexa594 FP, 6 h; series mostly up to 57.7 µM
Outline: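 FP of Alexa 594-tau after heparin (20 uM) induction. Substrate: human K18 P301L, 15 uM unlabeled, 0.24 uM labeled. Buffer 100 mM sodium acetate pH 7. 6 hr, 37 C.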
Potency is the fitted concentration of half-maximal effect; tags give direction and shape of the fitted curve.

SMILES	Potency
COc1ccc(S(=O)(=O)N2CCN(Cc3nc4ccc(C)cc4o3)CC2)cc1OC	inactive
Clc1nnc(N/N=C/c2ccccc2)c2ccccc12	inconclusive: 35.5 µM [inhibitor, single point]
Cc1ccc(-c2csc(NC(=O)/C=C/c3cccs3)n2)cc1C	inconclusive: 28.2 µM [inhibitor, single point]
COc1ccccc1NC(=S)NCC1CCC(CNC(=S)Nc2ccccc2OC)CC1 (centres undefined)	inconclusive: 15.8 µM [inhibitor, partial curve, poor fit]
COC(=O)COc1cccc(NS(=O)(=O)c2ccc(NC(C)=O)cc2)c1	inactive
CCCn1c2ccccc2c2cnn(CC(=O)Nc3cccc(C(=O)OCC)c3)c(=O)c21	inconclusive: 12.6 µM [inhibitor, partial curve]
Cn1c(-c2cccc(Br)c2)cnc1NCc1cccnc1	inactive
O=C(CSc1nc2ccc(NC(=O)C3CCCCC3)cc2s1)NCC1CCCO1 (centres undefined)	inactive
COc1cccc(C2C(C(=O)Nc3ccc(Cl)cc3)=C(C)Nc3c(C(=O)Nc4ccccc4)cnn32)c1OC (centres undefined)	inconclusive: 25.1 µM [inhibitor, partial curve]
CCc1c(C#N)c(SCCC(=O)Nc2ccc(F)cc2)nc2c1C(=O)CC(C)(C)C2	inconclusive: 20 µM [inhibitor, partial curve]
CCOC(=O)c1cccc(NC(=O)CCS(=O)(=O)c2ccc(Br)s2)c1	inactive and inconclusive: 39.8 µM [inhibitor, single point]
N[C@H](C(=O)O)c1nn[nH]n1	inactive
CCC1CCCCN1C(=S)Nc1ccc(SC(F)F)cc1 (centres undefined)	inconclusive: 12.6 µM [inhibitor, partial curve, poor fit]
O=C(NC1CC1)c1nc2c(nnn2Cc2ccccc2Cl)c(=O)[nH]1	inactive
Cc1ccc(-c2nn3cnnc3c3ccccc23)cc1	inactive
COc1ccccc1N1CCN(C(=O)Cc2c(C(=O)O)[nH]c3ccc(Cl)cc23)CC1	inactive
Cn1cnc2c(=O)oc3ccc(S(=O)(=O)N4CCN(c5ccccc5)CC4)cc3c21	inactive
CC(C)(C)OC(=O)N1CCC(c2c(C(=O)Nc3cccc(C(F)(F)F)c3)cnn2-c2ccc(F)cc2F)CC1	inconclusive: 14.1 µM [inhibitor, partial curve]
Cc1cc(C)cc(NC(=O)CSc2nnc(COc3ccccc3Cl)o2)c1	inconclusive: 14.1 µM [inhibitor, partial curve]
CC(=O)Nc1ccc(N/C=C2/CCCC2=O)cc1	inactive
COc1ccc([N+](=O)[O-])cc1N(CC(=O)NCCC1=CCCCC1)S(C)(=O)=O	inactive
O=c1c(-c2ccc3c(c2)OCCO3)coc2cc(O)cc(O)c12	inactive
CCOC(=O)CC(NC(=O)Cn1nnc(-c2ccc(C(F)(F)F)cc2)n1)c1ccccc1Cl (centres undefined)	inconclusive: 10 µM [inhibitor, partial curve, poor fit]

SMILES	Potency
COc1ccc(C)cc1NC(=O)c1cc2c(s1)-c1ccccc1SC2	inconclusive: 31.6 µM [inhibitor, single point]
O=C(NNc1nc(-c2ccccc2)cs1)c1ccco1	inconclusive: 14.1 µM [inhibitor, partial curve, poor fit]
Cc1cc(N2CCC(C)CC2)c(F)cc1[N+](=O)[O-]	inactive
O=C(Nc1ncc(Br)s1)C1CCCN1S(=O)(=O)c1cccc2cccnc12 (centres undefined)	inconclusive: 7.94 µM [inhibitor, partial curve]
Cc1ccccc1C(=O)N[C@H](C(=O)Nc1ccc(Cl)c(Cl)c1)C(C)C	inactive
COc1ccc(C(=O)Nc2ccc(OCc3ccccc3)cc2)cc1[N+](=O)[O-]	inconclusive: 14.1 µM [inhibitor, partial curve]
CCOc1ccc(S(=O)(=O)Nc2ccc(C(=O)N/N=C/c3c(C)nn(-c4ccccc4)c3N3CCCC3)cc2)cc1	inconclusive: 3.55 µM [activator, partial curve]
COc1cccc(-c2nnc(-c3ccccc3NC(=O)c3ccc(C(C)(C)C)cc3)o2)c1	inconclusive: 8.91 µM [inhibitor, partial curve]
CCC(C)c1ccc2oc(-c3ccc(NC(=O)Cn4cnc5c(=O)n(C)c(=O)n(C)c54)cc3)nc2c1 (centres undefined)	inactive
O=C(Nc1nccs1)c1ccc(COc2ccccc2Cl)o1	inconclusive: 39.8 µM [inhibitor, single point]
CC(C)[N+](C)(CCOC(=O)C1c2ccccc2Oc2ccccc21)C(C)C	inconclusive: 39.8 µM [inhibitor, single point]
O=C(Nc1ccccc1C(=O)N/N=C/c1ccc(F)cc1)c1ccccc1Br	inconclusive: 0.631 µM [inhibitor, full curve, poor fit]
CCN1CCC(NC(=O)c2cc(OC)c(OC)cc2OC)CC1	inconclusive: 12.6 µM [inhibitor, single point]
Cc1cc(NC(=O)CCCN2C(=O)/C(=C/c3cccs3)SC2=S)no1	inactive
CCN(CC)S(=O)(=O)c1ccc(NC(=O)COC(=O)c2ccc(NC(=O)CC#N)cc2)cc1	inconclusive: 10 µM [inhibitor, partial curve, poor fit]
CCN(CC)CCNC(=O)c1ccc2c(c1)NC(=O)C(CS(=O)(=O)Cc1ccc(F)cc1Cl)N2 (centres undefined)	inconclusive: 22.4 µM [inhibitor, partial curve, poor fit]
N#Cc1sc2nc(C3CC3)cc(-c3ccccc3)c2c1N	inconclusive: 14.1 µM [inhibitor, partial curve]
N[C@@H](CO)C(=O)O	inactive
CCOC(=O)c1ccc(Nc2nc(N)c3cc(OC)c(OC)cc3n2)cc1	inconclusive: 7.94 µM [activator, full curve, poor fit]
Cc1ccc2[nH]c(CSc3nnc(NC(=O)COc4ccccc4C)s3)cc(=O)c2c1	inconclusive: 17.8 µM [inhibitor, partial curve, poor fit]
CCCOCc1cc(CN2CCN(c3cccc(Cl)c3)CC2)c(O)c2ncccc12	inconclusive: 7.94 µM [activator, single point]
Cc1cccc(C)c1NC(=O)c1c(C)oc2c1C1=NCCN1C=N2	inconclusive: 17.8 µM [inhibitor, partial curve]
COc1ccc(CC(=O)Nc2ccc(-c3nc4ccccc4s3)cc2Cl)cc1OC	inconclusive: 8.91 µM [inhibitor, partial curve]

SMILES	Potency
COc1cccc(C(=O)N2CC(=O)Nc3ccc(C)cc3C2c2ccc(F)cc2)c1OC (centres undefined)	inconclusive: 0.708 µM [inhibitor, full curve, poor fit]
O=S(=O)(c1ccccc1)N1N=C(c2cccs2)CC1c1ccc(Br)cc1 (centres undefined)	inconclusive: 39.8 µM [inhibitor, single point]
NC(=S)NNc1cc(Cl)cc(Cl)c1	inconclusive: 39.8 µM [inhibitor, single point]
Cc1ccccc1-n1nc(C)c(N=O)c1N	inactive
COc1ccc(C(=O)CSc2nnc(-c3ccco3)n2C)cc1	inactive
N#C/C(=C\c1ccc(O)c(O)c1)C(=O)OCCc1cccs1	inactive
CC(=O)c1ccc(N2CCC(c3cc(-c4ccc(Cl)cc4)n[nH]3)CC2)c([N+](=O)[O-])c1	inconclusive: 11.2 µM [inhibitor, partial curve, poor fit]
COc1cc(Cl)c(C)cc1NC(=O)CSc1ccc(C)cc1	inactive
c1ccc2nc(N3CCCC3)c(N3CCCC3)nc2c1	inconclusive: 17.8 µM [activator, partial curve]
COc1ccc(OC)c(NC(=O)Cn2cnc3c(oc4ccccc43)c2=O)c1	inconclusive: 25.1 µM [inhibitor, single point]
Nc1ccc(Cc2ccc(N)c(O)c2)cc1O	inconclusive: 0.224 µM [inhibitor, full curve]
COc1cccc(C(=O)Nc2c(C(=O)NC(C)(C)C)oc3ccccc23)c1	inactive
O=C(/C=C/c1ccco1)NCC1OCCc2ccccc21 (centres undefined)	inconclusive: 20 µM [inhibitor, partial curve]
Nc1ccc2c(c1)sc1ccccc12	inconclusive: 1 µM [inhibitor, partial curve]
COc1ccc(CCn2c(N)c(C(=O)NCc3ccco3)c3nc4ccccc4nc32)cc1	inconclusive: 12.6 µM [inhibitor, partial curve, poor fit]
N#CC1=C(N)Oc2cc3c(cc2C1c1ccc(Cl)cc1)OCO3 (centres undefined)	inconclusive: 39.8 µM [inhibitor, single point]
O=C(Cc1cccc2ccccc12)N/N=C/c1ccc(OC(=O)/C=C/c2ccco2)cc1	inconclusive: 20 µM [inhibitor, single point]
CCc1cccc(NC(=O)Cn2c(=O)n(CCc3ccc(OC)c(OC)c3)c(=O)c3ccccc32)c1	inconclusive: 11.2 µM [inhibitor, partial curve]
CCn1nc(C)c(/C=C2\CCCC3=C2OC(N)=C(C#N)C3c2c(C)nn(CC)c2C)c1C (centres undefined)	inactive
Cc1ccc(S(=O)(=O)N(C)Cc2ccc(-c3nnc4n3CCC4)cc2)cc1	inactive
Cc1ccc(-c2csc(NC(=O)C3CCN(S(=O)(=O)c4cccs4)CC3)n2)cc1	inconclusive: 44.7 µM [inhibitor, single point]
Cc1cc(O)c(C(C)C)cc1N=Cc1ccccc1O	active: 8.91 µM
Cn1c(=O)[nH]c2ncn(C)c2c1=O	inconclusive: 3.16 µM [inhibitor, single point]
